Earlier results as cited in publication PMC8435859 (Frontiers in Cellular and Infection Microbiology, 2021).

What was measured:
JEV = settings: vendor library annotation, ref Li SW, et al. Eur J Pharmacol. 2014; cited from earlier work
EV71 = settings: vendor library annotation, ref Li SW, et al. Eur J Pharmacol. 2014; cited from earlier work

For `O=C1c2cccc(O)c2C(=O)c2c(O)cc(CO)cc21` [Aloe-emodin], the IC50 (JEV) is listed as 1 µg/mL (≈ 3.7 µM) and the IC50 (EV71) is listed as 0.33 µg/mL (≈ 1.22 µM).

Values after ≈ are worked out from the molar mass of the structure shown.
